# Assay results from patent US20230301999A1, “METHODS OF TREATING GOUT” (Horizon Therapeutics USA, Inc., priority 2020, published 2023).
# Key:
# [1] = tested on: adult patients with uncontrolled gout; conditions: 4 weeks
# [2] = tested on: adult patients with uncontrolled gout; experiment: Open-label study: gout flares (adverse events of special interest); assay type: in vivo, human; conditions: for Subjects with gout flares, %: Methotrexate Run-in Period
# Source text: As used herein, a “gout flare” refers to a manifestation of physiological or biochemical symptoms of gout, which is a possible side effect or AE associated with treatment with KXX. A gout flare may produce burning itching, tingling, or stiffness in the joints, particularly the peripheral joints. An individual may also experience redness, swelling, and pain in the joints. […] For such individuals, medications to help reduce flares may be taken regularly for the first few months after KXX is started.
# Participants were instructed to contact the site within 12 hours of the onset of symptoms. Gout flares were confirmed through questioning or direct observation.
# [3] = tested on: adult patients with uncontrolled gout; experiment: Open-label study of pegloticase with MTX: serum uric acid observed values and change from baseline; assay type: in vivo, human; conditions: mITT
# Source text: KXX treatment typically is monitored using regular determination of the patient's SUA levels. A reduction in the serum uric acid level relative to the SUA in the patient before KXX treatment may generally be indicative of successful treatment with KXX, alone, or co-administered with an immunosuppressive agent or therapy, such as MTX, as described herein. Collection and measurement of a patient's serum uric acid levels are known to those of skill in the art. In some embodiments, the patient's serum uric acid levels are assayed before each KXX therapy. In some embodiments, any suitable method for collecting appropriate samples and methods of measuring or quantifying uric acid levels may be used in accordance with the disclosure.
# Criteria for Evaluation: Efficacy was assessed by SUA levels, tender and swollen joint counts, patient and physician global assessments of gout, joint pain, and DECT.
# Patients were administered oral MTX (15 mg/week) and folate (1 mg/day) 4 weeks prior to the first pegloticase infusion (Day 1) and throughout the pegloticase treatment period. Blood was drawn prior to each infusion to measure sUA level, monitor clinical parameters, and examine for ADA development. All patients followed typical IR prophylaxis protocols (fexofenadine one day before and the morning of each infusion and acetaminophen and IV corticosteroid the morning of each infusion). […] The primary study outcome was the proportion of responders, defined as sUA<6 mg/dL for at least 80% of the time during month 6 (weeks 20, 22, and 24). All analyses were performed on a modified intent-to-treat population, defined as patients who received ≥1 pegloticase infusion.
# [4] = Day 1 - Pre-Infusion (after MTX run-in, before pegloticase)
# [5] = Week −2 (MTX run-in, before pegloticase)
smiles,measurement,setting,value
CN(Cc1cnc2nc(N)nc(N)c2n1)c1ccc(C(=O)N[C@@H](CCC(=O)O)C(=O)O)cc1 [Methotrexate],"Infections And Infestations, Incidence Rate",[1],1.8 Events/PY of MTX
same,"Infections And Infestations, Total Events",[1],2
same,"Pain different than normal, %","[2]; Day 1, ITT",(50.0) %
same,"Pain different than normal, %","[2]; Day 1, mITT",(50.0) %
same,"Subjects with gout flares, %",[2]; ITT N = 15,(33.3) %
same,"Subjects with gout flares, %",[2]; mITT N = 14,(35.7) %
same,"Pain at rest >3 out of 10, %","[2]; Week −4, ITT",(50.0) %
same,"Swelling in Joints, %","[2]; Week −4, ITT",(50.0) %
same,"sUA change from MTX baseline, mean (SD)",[3]; [4],0.25 (1.283) mg/dL
same,"sUA change from MTX baseline, median",[3]; [4],-0.25 mg/dL
same,"subjects with sUA < 6 mg/dL, %",[3]; [4],(7.1%)
same,"sUA change from MTX baseline, mean (SD)",[3]; [5],0.54 (0.839) mg/dL
same,"sUA change from MTX baseline, median",[3]; [5],0.50 mg/dL
same,"subjects with sUA < 6 mg/dL, %",[3]; [5],(7.1%)
